Here are results for 48 compounds from PubChem BioAssay AID1508624 (National Center for Advancing Translational Sciences (NCATS), 2021).

Structures are written as SMILES. The campaign covered roughly 48,000 compounds. About 120 (0.25%) were called active. Inconclusive results (about 4%) are left out. Calls come from the whole dose curve; as a rule, active = well fitted activation curve with a large enough effect; inconclusive = small, poorly fitted or top-dose-only effect, or another doubt; inactive = no such curve, though single readings can be large or run the other way. The list shows a part of the results.

The experiment is described as follows: Primary qHTS for Identification of Small Molecule Activators of Huntingtin-Antisense Promoter Activity. Note: nearly all actives have a fitted effect of over 55% in size. Conditions: HEK293 HTT-AS promoter firefly luciferase reporter (activity 0% = vehicle and -100% = no light), 24 h; series mostly up to 57.5 µM; activity change, positive = activation: at the top concentration. In a few lines:
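HEK293 luciferase promoter-reporter cells (2,500/well) plated 24 h, then compounds added at up to 57.5 uM final for 24 h at 37 °C. Firefly luminescence by Dual-Glo, normalized to vehicle (0%) and zero RLU (-100%).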
In general terms: qHTS replaces the single test concentration by a dilution series.
`O=C(Nc1ccc(F)cc1Cl)n1ncc2cc(Cl)ccc21`: the “activity change, positive = activation” value was inactive: 0%.

For `CCC(=O)N1CCc2cc(S(=O)(=O)NC(CC(C)C)C(=O)Nc3cc(C)ccc3OC)ccc21` (stereo not drawn), the “activity change, positive = activation” value is inactive: -3.05%.

As for `CCCOc1ccc(C(=O)Nc2cccc(NC(=O)c3cccc(Cl)c3)c2)cc1`, the “activity change, positive = activation” value is inactive: 15.2%.

As to `CCS(=O)(=O)c1ncc(N(Cc2ccco2)Cc2sccc2C)c(C(=O)Nc2ccc(C)cc2C)n1`, the “activity change, positive = activation” value is inactive: -16.3%.

Consider `CCCCc1nn2c(=O)cc(COC(=O)c3cccc(OC)c3)nc2s1`, for which the “activity change, positive = activation” value was inactive: -4.02%.

With `COc1ccccc1N(CC(=O)NCCSCc1ccccc1)S(C)(=O)=O`, the “activity change, positive = activation” value was inactive: -8.74%.

Take `COc1ccc(-c2cc(C(F)(F)F)nc(SCC(=O)NCc3ccc(OC)c(OC)c3)n2)cc1`: the “activity change, positive = activation” value was inactive: -8.69%.

Take `CCc1nnc2c(Nc3cccc(C(C)=O)c3)nc3ccccc3n12`: the “activity change, positive = activation” value is inactive: 3.73%.

Take `CCOc1ccc(C(=O)NCc2ccc3c(c2)CCN3C(=O)c2ccccc2)cc1`: the “activity change, positive = activation” value is inactive: -23.7%.

As for `COc1ccc(-c2onc(C)c2C)cc1S(=O)(=O)NCc1ccco1`, the “activity change, positive = activation” value was inactive: -15.5%.

Turning to `COc1cccc(C(=O)Nc2cccc(OCc3cc(=O)n4cc(C)ccc4n3)c2)c1`, the “activity change, positive = activation” value is inactive: 0.218%.

For `CCc1ccc(CNC(=O)c2ccc3c(c2)nc2n3CCC(C)C2)cc1` (stereo not drawn), the “activity change, positive = activation” value was inactive: 9.34%.

For the compound `COc1ccc(C)cc1NC(=O)CN(c1ccccc1)S(=O)(=O)N(C)C`, the “activity change, positive = activation” value is inactive: 2.96%.

With `CCCCc1nn2c(=O)cc(COC(=O)COc3ccc(C)cc3)nc2s1`, the “activity change, positive = activation” value was inactive: 14.2%.

On to `CCOC(=O)CN1C(=O)c2ccccc2Sc2ncccc21`, for which the “activity change, positive = activation” value was inactive: -10.8%.

On to `COc1ccc(NC(=O)CN2C(=O)COc3ccc(S(=O)(=O)Nc4ccccc4)cc32)cc1`, for which the “activity change, positive = activation” value is inactive: -13.8%.

In the case of `CCOC(=O)Oc1ccc(CCNC(=O)[C@H](CCSC)NC(C)=O)cc1OC(=O)OCC`, the “activity change, positive = activation” value was inactive: -1.61%.

Consider `COc1ccc(C(=O)NCC(c2ccc(N(C)C)cc2)N2CCCC2)c(OC)c1` (stereo not drawn), for which the “activity change, positive = activation” value was inactive: -10.2%.

Turning to `Cc1cccc(-c2nc(CSc3nncn4c3cc3oc(C)cc34)c(C)o2)c1`, the “activity change, positive = activation” value was inactive: -7.1%.

Consider `COc1ccccc1OCC(=O)Nc1nc2c(s1)CC(C)CC2` (stereo not drawn), for which the “activity change, positive = activation” value was inactive: -6.69%.

Turning to `CCSc1ncc(Cl)c(C(=O)Nc2c(C(=O)Nc3cccc(C)c3)oc3ccccc23)n1`, the “activity change, positive = activation” value is inactive: -2.33%.

Turning to `Cc1ccc2nc(-c3ccc(Cl)cc3)cc(C(=O)OCC(=O)c3ccccc3)c2c1`, the “activity change, positive = activation” value is inactive: -18.3%.

In the case of `COc1ccc(NC(=O)c2sc3nc4c(cc3c2N)CN(Cc2ccccc2)CC4)cc1`, the “activity change, positive = activation” value was inactive: -1.25%.

Take `CCc1ccc(C2Sc3ccccc3NC3=C2C(=O)c2ccccc23)cc1` (stereo not drawn): the “activity change, positive = activation” value is inactive: -0.692%.

For `COc1ccc(C(=O)NCCc2sc(-c3ccc(F)cc3)nc2C)cc1OC`, the “activity change, positive = activation” value is inactive: -9.97%.

`CC1CCC(NC(=O)C2(C)Cc3ccccc3C(=O)N2Cc2ccc(F)cc2)CC1` (stereo not drawn): the “activity change, positive = activation” value was inactive: -9.81%.

Turning to `CCC(C(=O)NC1CCCCC1)n1c(SCc2ccc(F)cc2)nc2ccncc21` (stereo not drawn), the “activity change, positive = activation” value is inactive: -17.8%.

For the compound `CCC(Cn1nnc2ccccc2c1=O)NC(=O)Nc1ccc(C)cc1C` (stereo not drawn), the “activity change, positive = activation” value is inactive: -15.2%.

For the compound `CC(=O)c1cccc(Nc2ccc3cc(S(=O)(=O)N4CCC(C)CC4)ccc3n2)c1`, the “activity change, positive = activation” value was inactive: -37.4%.

Turning to `O=C(COc1ccccc1-c1nnc(-c2ccccc2)o1)Nc1ccc(Br)cc1F`, the “activity change, positive = activation” value was inactive: -17.1%.

Turning to `CCCNC(=O)CCNS(=O)(=O)c1ccc2c(c1)c(=O)n(C)c(=O)n2C`, the “activity change, positive = activation” value was inactive: -2.27%.

Regarding `CC(=O)c1ccc(NS(=O)(=O)c2cc(-c3cc(C)no3)ccc2C)cc1`, the “activity change, positive = activation” value is inactive: -38.1%.

With `CCC(=O)N1CCc2cc(S(=O)(=O)NCCC(=O)Nc3ccc(C)cc3)ccc21`, the “activity change, positive = activation” value is inactive: 10.4%.

On to `CC(C)c1ccc(-c2nnc3n(CCc4ccccc4)c(=O)c4ccccc4n23)cc1`, for which the “activity change, positive = activation” value was inactive: -58.3%.

`Cc1cccc(NCc2nc3ccccc3n2CCOc2ccccc2C)c1`: the “activity change, positive = activation” value was inactive: -5.62%.

On to `COc1cc(OC)c(NC(=O)CCn2cnc3onc(-c4ccc(F)cc4)c3c2=O)cc1Cl`, for which the “activity change, positive = activation” value is inactive: -26.4%.

As to `CCOc1ccc(NC(=O)N(Cc2c[nH]c3ccccc23)C2CCCCC2)cc1`, the “activity change, positive = activation” value is inactive: 27.4%.

For `Cc1oc(-c2cccc(Cl)c2)nc1CN1CCC(C(=O)NCCCN2CCN(c3cccc(Cl)c3)CC2)CC1`, the “activity change, positive = activation” value was inactive: -16%.

`Nc1cc(=O)nc(SCC(=O)Nc2ccc(F)cc2)n1-c1ccc(Cl)cc1`: the “activity change, positive = activation” value was inactive: -13%.

For the compound `Cc1ccc(CNCc2c(C(=O)O)n(Cc3ccccc3C)c3cc(C)ccc23)cc1`, the “activity change, positive = activation” value is inactive: -10.5%.

Regarding `CCC[C@@H]1C[C@@H](C(=O)N[C@@H]([C@H]2O[C@H](SC)[C@H](O)[C@@H](O)[C@H]2O)[C@@H](C)O)N(C)C1`, the activity change, positive = activation entry was “inactive”.

For the compound `CCCCNC(=O)c1[nH]c2ccccc2c1Sc1ccc(C)cc1`, the “activity change, positive = activation” value is inactive: 3.44%.

For the compound `CCOc1ccccc1C(=O)NCc1ccc2c(c1)CCN2C(C)=O`, the “activity change, positive = activation” value is inactive: -4.85%.

As to `Cc1ccc(C2c3[nH]c4ccccc4c3CCN2C(=O)Nc2ccc(C)c(C)c2)cc1` (stereo not drawn), the “activity change, positive = activation” value is inactive: -28.2%.

Consider `CC(=O)c1cccc(NC(=O)c2nc(-c3ccc(C)cc3)n3c2CCCCC3)c1`, for which the “activity change, positive = activation” value was inactive: -46.4%.

Take `Cc1cccc(NC(=O)C2CCCN(S(=O)(=O)c3cccc4nonc34)C2)c1` (stereo not drawn): the “activity change, positive = activation” value is inactive: 1.81%.

With `O=C(NCCc1ccc(Cl)cc1)c1ccc(CSCc2ccccc2Cl)o1`, the “activity change, positive = activation” value is inactive: -18.7%.

Consider `Cc1ccc(NC(=O)C(=O)NCc2ccc(Cl)cc2)cc1`, for which the “activity change, positive = activation” value is inactive: 5.74%.
